The campaign covered roughly 310,000 compounds. About 2,200 (0.71%) showed an effect of 50% or more. The effect is printed as a negative number. This is one part of the list.

Chain of human ether-à-go-go-related gene (hERG) potassium channel (Q12809 whole entry, looked up): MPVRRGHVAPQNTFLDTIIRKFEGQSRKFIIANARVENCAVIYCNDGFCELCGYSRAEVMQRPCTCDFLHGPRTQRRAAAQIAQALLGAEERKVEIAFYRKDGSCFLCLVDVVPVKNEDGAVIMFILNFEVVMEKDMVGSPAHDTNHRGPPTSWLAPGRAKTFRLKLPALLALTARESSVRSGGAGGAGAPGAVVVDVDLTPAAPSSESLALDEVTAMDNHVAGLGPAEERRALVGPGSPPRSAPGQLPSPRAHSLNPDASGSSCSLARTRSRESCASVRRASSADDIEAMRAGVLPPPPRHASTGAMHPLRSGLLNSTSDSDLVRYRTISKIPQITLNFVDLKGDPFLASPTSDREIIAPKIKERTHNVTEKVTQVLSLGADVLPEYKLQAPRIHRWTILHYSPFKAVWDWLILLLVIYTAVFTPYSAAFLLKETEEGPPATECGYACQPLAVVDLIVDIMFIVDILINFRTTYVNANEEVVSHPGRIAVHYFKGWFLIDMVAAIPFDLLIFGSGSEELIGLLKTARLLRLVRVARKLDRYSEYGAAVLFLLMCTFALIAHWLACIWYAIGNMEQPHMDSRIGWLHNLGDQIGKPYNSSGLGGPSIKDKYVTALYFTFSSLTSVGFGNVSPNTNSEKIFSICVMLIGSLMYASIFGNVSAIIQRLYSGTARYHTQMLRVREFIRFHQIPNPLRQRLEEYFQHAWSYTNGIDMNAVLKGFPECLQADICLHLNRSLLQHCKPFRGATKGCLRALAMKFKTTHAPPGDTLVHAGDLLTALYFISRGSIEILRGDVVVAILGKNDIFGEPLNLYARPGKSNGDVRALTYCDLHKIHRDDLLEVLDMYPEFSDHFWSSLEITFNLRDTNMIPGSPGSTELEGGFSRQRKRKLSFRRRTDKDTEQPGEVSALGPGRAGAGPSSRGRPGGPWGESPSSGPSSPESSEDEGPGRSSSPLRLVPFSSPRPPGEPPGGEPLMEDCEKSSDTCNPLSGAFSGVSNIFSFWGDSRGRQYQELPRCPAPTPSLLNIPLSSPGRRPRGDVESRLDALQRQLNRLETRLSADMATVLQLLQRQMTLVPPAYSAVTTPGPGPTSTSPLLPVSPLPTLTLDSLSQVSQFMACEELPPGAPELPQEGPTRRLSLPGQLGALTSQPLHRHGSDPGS

This test concerns the target human ether-à-go-go-related gene (hERG) potassium channel (human, UniProt Q12809). Put plainly: primary screen, population patch clamp on CHO cells stably expressing hERG.
As to `COc1ccc(N2C(=O)[C@@H]3Cc4ccccc4CN3C2=O)cc1`, the “hERG current change (%, negative = inhibition) at 1uM” value came out at 2.02%.
The same measure for `COCCNC(=O)c1c(N)n(CCC(C)C)c2nc3ccccc3nc12`: 3.8%; for `CCOc1ccc(-n2nnc3c(=O)n(CC(=O)N4CCCc5ccccc54)cnc32)cc1`: -2.55%; for `O=C(NCc1ccccn1)c1ccc(OC2CCN(Cc3ccc(F)cc3F)CC2)cc1`: 0.219%.
In the case of `C/C=C(\C)c1nnc(NC(=O)OCC)s1`, the “hERG current change (%, negative = inhibition) at 1uM” value worked out at 10.7%.
The same measure for `CCOP(=O)(OCC)/C(=N/OC(=O)c1cccc([N+](=O)[O-])c1)C(N)=O`: 13%; for `COc1ccccc1CC(=O)Nc1c[nH]c(=O)[nH]c1=O`: 29.3%; for `O=C(N[C@@H]1CCC(=O)N(CC[C@H](Sc2ccccc2)c2ccccc2)CC1)OCc1ccccc1`: 5.88%.
Regarding `CCOC(=O)C1(Cc2cccc(OC)c2)CCN(C(C)CC(C)(C)O)CC1` (centres unmarked), the “hERG current change (%, negative = inhibition) at 1uM” value stood at 3.09%.
On to `Cc1ccc(F)cc1CNC(=O)C1CCC(=O)N(C2CC2)C1` (centres unmarked), for which the “hERG current change (%, negative = inhibition) at 1uM” value is recorded as 3.79%.
In the case of `O=C(CCN1C(=O)/C(=C/c2ccccc2Cl)SC1=S)NNC(=O)c1cccnc1`, the “hERG current change (%, negative = inhibition) at 1uM” value is 16%.
For `O=C1NC(=O)C(=Cc2csc3ccccc23)C(=O)N1`, the “hERG current change (%, negative = inhibition) at 1uM” value amounted to 5.51%.
With `Cc1cccc(Nc2nnc(SCC3CCCCO3)s2)c1` (centres unmarked), the “hERG current change (%, negative = inhibition) at 1uM” value was 6.7%.
As to `O=C(O)C1C2C=CC(O2)C1C(=O)NCc1ccc(Cl)cc1` (centres unmarked), the “hERG current change (%, negative = inhibition) at 1uM” value came to 8.47%.
For the molecule `CCCc1cc(N2CCN(C(=O)c3ccco3)CC2)n2c(nc3ccccc32)c1C#N`, the “hERG current change (%, negative = inhibition) at 1uM” value is listed as -39.4%.
In the case of `CC1Cc2cc(/C(O)=C3\C(=O)C(=O)N(Cc4ccncc4)C3c3ccccc3F)ccc2O1` (centres unmarked), the “hERG current change (%, negative = inhibition) at 1uM” value was 17.9%.
As for `Cc1cc(F)ccc1S(=O)(=O)Nc1ncnc2scc(-c3ccc(F)cc3)c12`, the “hERG current change (%, negative = inhibition) at 1uM” value was 12.6%.
For `O=C(CSc1nc2[nH]ncc2c(=O)[nH]1)N1CCCC1` the value was 10.4%; for `CCOP(=O)(c1ccc(N(C)C)cc1)C(O)c1ccccc1OC` (centres unmarked), 5.04%.
With `COc1ccc(NC(=O)CN2CCC(C(N)=O)CC2)cc1`, the “hERG current change (%, negative = inhibition) at 1uM” value was 2.62%.
Consider `Cc1ccn2c(C(=O)N/N=C\c3cccs3)c(C)nc2c1`, for which the “hERG current change (%, negative = inhibition) at 1uM” value is recorded as 5.01%.
`CC1Cc2ccccc2N1C(=O)COC(=O)c1c2c(nc3ccccc13)CCCCC2` (centres unmarked): the “hERG current change (%, negative = inhibition) at 1uM” value is on record as 12%.
Take `COc1cc(NS(=O)(=O)c2ccc(NS(=O)(=O)c3ccc(NC(C)=O)cc3)cc2)nc(OC)n1`: the “hERG current change (%, negative = inhibition) at 1uM” value is reported as 18.3%.
For `FC(F)(F)c1cc(Sc2ccccc2)nc(-c2ccccn2)n1` the value was -1.68%; for `S=C1NCCOCCOCCOCCNC(=S)N2CCOCCOCCN1CCOCCOCC2`, 14.6%; for `CC(Nc1cccc2ccccc12)C(=O)N/N=C/c1ccccn1` (centres unmarked), 11.1%.
With `CCOCCn1c(SCc2c(F)cccc2Cl)nc2c1c(=O)[nH]c(=O)n2C`, the “hERG current change (%, negative = inhibition) at 1uM” value amounted to 4.9%.
`COc1ccccc1NC(=O)COc1ccc(-c2nn(C)c(=O)c3ccccc23)cc1`: the “hERG current change (%, negative = inhibition) at 1uM” value is given as 1.15%.
For `CN(C)c1nc(N)c([N+](=O)[O-])c(NCCO)n1`, the “hERG current change (%, negative = inhibition) at 1uM” value came to 12.4%.
For `COc1ccccc1NC(=O)C1CC(=O)N(c2ccc(F)cc2)C1` (centres unmarked), the “hERG current change (%, negative = inhibition) at 1uM” value is 7.67%.
Regarding `COc1ccccc1C(=O)NC(=S)Nc1cccnc1Cl`, the “hERG current change (%, negative = inhibition) at 1uM” value is listed as 4.44%.
On to `Brc1cccc(-c2nc3cccnc3nc2-c2cccc(Br)c2)c1`, for which the “hERG current change (%, negative = inhibition) at 1uM” value is 20.2%.
With `Cc1cccc(NC(=S)N2CCC(N(C)CC3CCCO3)CC2)c1` (centres unmarked), the “hERG current change (%, negative = inhibition) at 1uM” value was -9.04%.
Regarding `CCCCC(c1nnnn1C1CCCC1)N1CCN(C(=O)c2ccco2)CC1.Cl` (centres unmarked), the “hERG current change (%, negative = inhibition) at 1uM” value is -13.5%.
For the molecule `CC(C)CN(C1CCS(=O)(=O)C1)S(=O)(=O)c1ccc2ccccc2c1` (centres unmarked), the “hERG current change (%, negative = inhibition) at 1uM” value is recorded as -4.27%.
For the molecule `CNC(=O)O/N=C/c1nn(C(=O)C(C)(C)C)cc1Br`, the “hERG current change (%, negative = inhibition) at 1uM” value came out at 11.8%.
The same measure for `N=C1/C(=C\c2coc3ccccc3c2=O)C(=O)N=C2SC(c3ccncc3)=NN12`: 6.88%; for `CC(=O)Nc1ccc(NC(=O)C(C)Sc2n[nH]c(-c3cccs3)n2)cc1` (centres unmarked): 3.43%; for `COc1ccc(-c2cc(=O)oc3cc(OCC(=O)N[C@@H](Cc4c[nH]c5ccccc45)C(=O)O)ccc23)cc1`: -9.39%.
Turning to `COc1cc(/C=N/N(C)C)ccc1OC(=O)c1cccs1`, the “hERG current change (%, negative = inhibition) at 1uM” value was determined as 12.8%.
For the molecule `OCCCc1nc2n(n1)C(c1ccccc1)C=C(c1ccccc1)N2` (centres unmarked), the “hERG current change (%, negative = inhibition) at 1uM” value is 1.51%.
Take `CC(=O)N1CCN(c2ccc(NC(=O)c3ccc(C)cc3)cc2)CC1`: the “hERG current change (%, negative = inhibition) at 1uM” value was 14.7%.
On to `CCOC(=O)c1ccccc1NC(=O)CSc1nc2[nH]ncc2c(=O)[nH]1`, for which the “hERG current change (%, negative = inhibition) at 1uM” value is given as 8.29%.
Regarding `COc1ccccc1C1C(C(N)=O)=C(C)Nc2nc(-c3ccccc3Cl)nn21` (centres unmarked), the “hERG current change (%, negative = inhibition) at 1uM” value stood at 6.26%.

The values are drawn from publication PMC4336329 (PLoS ONE, 2015).
